This passage reports self-cleavage results from the RNAGym collection of RNA variant scans (doi:10.1093/nar/gkz1192).

To fix the notation:
B1: CPEB3 Ribozyme (parent)
chain: UAACAGGGGGCCACAGCAGAAGCGUUCACGUCGCAGCCCCUGUCAGAUUCUGGUGAAUCUGCGAAUUCUGCUGUAUAUCUC

The source gives no read counts; variants with many changes may rest on few reads.

The data set covers variants of B1. Description: self-cleavage, relative activity (ratio to wild type); higher = more cleavage; in vitro, sequencing. In outline:
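Barcoded CPEB3 ribozyme mutants, produced by rounds of error-prone PCR, self-cleaved while being transcribed with T7 RNA polymerase for 5 hours at 37°C and during a subsequent 15 min DNase I step before EDTA was added. Sequencing of template-switched cDNA on Illumina gave cleaved and total reads, and DNA sequencing assigned barcodes to variants. Each variant's relative activity is its cleaved/total read fraction divided by the unmutated ribozyme's fraction, averaged across three batches. A variant needed a minimum of 5 reads.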
Regarding UAACAUGGGGCCUCAGCAGAAGCGUUCGCGUCGCAGCCCCUGUCAGAUUCUGGCGAAUCUGCGAAUUCUGCUGAAUAUCUC, the self-cleavage stood at 0.07.
UAACACGGGGCCACAGCAGAAUCGUUCACGUCGCAGCCCCUGUCAGAUUCUGGUGAAUCUGCGUAUUCUGCUGUAUAUCUC: the self-cleavage worked out at 0.26.
The same measure for UAACAAGGGGCCACAGCAGAAGCGCUCACGGAGCAGCCCCUGUCAGAUUCUGGUGAAUCUGCGAAUUCUGCUGUAUAUCAC: 0.33.
On to UAACAAGGGGCCACAGCAGAAGCGGUCUCGUCGUAGCCCCUGUCAGAUUCUGGUGAAUCUGCGAGUUCUGCUGUAUAUCCC, for which the self-cleavage came to 0.07.
Consider UAACAAGGGGCCACAGCAGAAGCGUUCACGUCGCAGCCCCUGCCAGAAUCUGGUGAAUCUGCGAAUCCUGCUGUAUUUCUC, for which the self-cleavage was determined as 0.15.
Turning to UAACAUGGGGCCACAGCAGAGGCGCUCACGUCGCAGCCCCUGUCAGAUUCUGGUGGAACUGCGAAUUCUGCUGUAUAACCC, the self-cleavage was determined as 0.23.
The figure for UAACAAGGGGCCACAGCAGAAGCGUUCACGUCGCAGCCCCUGACGGAUUCUGGUGAAUCUGCGAAUUCUGCUGUAUACCUC is 0.19.
With UAACAAGGGGCCACAGCAGAAGCGUUCACGUCGCAGCCCCUGUCAGAUUCUCGUGAAUCUGCGAAUUCUGCCGUAUAUCCC, the self-cleavage came to 0.68.
The same measure for UAACAAGGGGCCACAGCAGAAGCGUUCACGUCGCAGCCCCUGUCAGAUUCUGGUGAAUCUGCGAAUUCUGCCGUAUGUCUC: 0.63; for UAACAAGGGGCCACAGCAGAAGCGCUCACGUGGCAACCCCUGUCUGAUUCUGGUGAAUCUGCGAGUCCUGCUGUAUAUCUC: 0.04.
As to UAACAAGGGGCCACAGCAGAAGCGUUCACGCCGCAGCCCCUGUCAGAUCCUGGUGUAUCUGCGCAUUCUGCUGUAUAUCUC, the self-cleavage stood at 0.05.
The figure for UAACAAGGGGCCACAGCAUAAGCGUUCACGUCGCAGCCCCUGUCAGACUCUGGUGAAUCUGCGAGUUCUGCUGUAUAUCUC is 0.26.
On to UAACAUGGGGCCGCAGCAGAAGCGUUCGCGUCGCAGCCCCUGUCAGAUUCUGGUGGAUCUGCGAAUUCUGCUGUAUAUCUC, for which the self-cleavage was found to be 0.34.
For the variant UAACACGGGGCCACAGCAGAAGCGUUCACGUCGCAGCCCCUGUCAGAUUCUGGUGAGUCUGCGAUUUCAGCUGUAUAUCCC, the self-cleavage is 0.06.
Consider UAACAAGGGUCUACAGCAGAAGCGUCCACGUCGCAGCCCCUGUCAGAUUCUGGUGAAUCUGCGAAUUCUGCUGUAUAUCUC, for which the self-cleavage is 0.05.
With UAACAAGGGGCCACAGCAGAAGCGUUCACGACGCAGCCCCUGUCUGAUUCUGGUGAAUCAGCGAAUUCUGCUGUAUAUCUC, the self-cleavage turned out to be 0.17.
As for UAACAAGGGGCCACAGCAGAAGCGCUCACGUCGCAGCCCCUGUCAGAUUCUGGUGGAUCUGCGAAUUCUGCUGUAUAUCUC, the self-cleavage is 0.08.
The figure for UAACAAGGGGCCACAGCAUAAGCGUUCACGUCGCAGCCCCUGUCAGAUUCCUGUGAAUCUGCAAAUUCUGCUGUAUAUCUC is 0.07; for UAACAAGGGGCCACAGCAGAAGCGUACACGCCGCAGCCCCUGUCAGAUUCUGGCGAAUCUGCGAAUUCUGCUGUAUAUCUC it is 0.13; for UAACACGGGGCCACAGCGGGAGCGUUCACGUCGCAGCCCCCGUCAGAUUCUGGUGAAUCUGCGGAUUCUGCUGUGUAACUC it is 0.02.
In the case of UAACAAGGGGCCACAGCAGAAGCUUUCAUGUCGCAGCCCCUGACAGAUUCUGGUGAGUCCGCGAAUUCUGCUGUACAUCUC, the self-cleavage came to 0.06.
UAACAUGGGGCCACAGCGGAAGCGUUCACGUCGCAGCCCCUGUCAGAUUCUGGUGAAUCUGCGAAUUCCGCUGUAUAUCUC: the self-cleavage was 0.17.
With UAACAUGGGGCCACAGCAGAAGCGUUCGCGUCGCAGCCCCUGUCUGAUUCUGGUGAAUCUGCGAAUUCUGCUGUAUAUCUC, the self-cleavage amounted to 0.09.
Consider UAACAAGGGGCCACAGCAGAAGCGUUCACGUCGCAGCCCCUGUCAGAUUCUGGUGAAUCUGCGAAUCCUGCUGCAUAUCUC, for which the self-cleavage is 0.09.
With UAACAAGGGGCCACAGCAGAAGCGUUCACGUCGCAGCCCCUGUCAGAUUCUGGUGAAUCUGCGAAUUCUGCUACAUAUCUC, the self-cleavage stood at 0.95.
The same measure for UAACAAGGGGCCACAGCAGAAGCGAUCACGUCGCAGCCCCUGUCAGAUUCUGGUGAAUCUGCGAAUUCUGCUGUACAUCUC: 0.07.
Consider UAACAAGGGGCCACAGCAGAAGCGUUCACGUCGCAACCCCUGUCAGAUUCUGGUGAAUCCGCGAAUUCUGCUGUACAUCUC, for which the self-cleavage came to 0.23.
With UAACAAGGGGCCACAGCAGAAGCGCUCACGUCGCAGCCCCUGUCAGAUUCUGGUGAAUCUGCGAGUUCUGCUGUAUAUAUC, the self-cleavage came out at 0.39.
On to UAACAUGGGGCCACGGCAGAAGCGUUCACGUCGCAGCCCCUGUCAGAUUCUGGUGAAUCUGCGAAUUCUGCCGUAUAUCUC, for which the self-cleavage worked out at 0.51.
The same measure for UAACAAGGGGCCACAGCAGAAGCGUUCACGUCGCAGCCCCUGUCAGAUUCUGGUGAAUCUGCGAAUUCAGCUGUACAUCUC: 0.51; for UAACAAGGGGCCACAGCAGAAGCGUUCACGUCGCAGCCCCUGUCAGACUCUGGUGAAUCUGCGAAUUCUGCUGUAUAACUC: 0.25.
For the variant UAACAAGGGGCCACAGCAGAAGCGUUCACGACGCAGCCCCUGUCAGAUUCUGGUGAAUCCGCGAAUCCUGCUGUAUAUCUC, the self-cleavage amounted to 0.18.
For UAACACGGGGCCACGGCAGAAGCGUUCACGUCGCUGCCCCUGUCAGAUUCUGGUGAAUCUGCGAAUUCUGCUGUAUAUCUC, the self-cleavage turned out to be 0.33.
With UAACAUGGGGCCACAGCAGGAACGUUCACGUCGCAGCACCUGUCAGAUCCUGGUAAAUCUGCGAAUUCUGCUGUAUACCUC, the self-cleavage was 0.03.
